Enrichment ratio data for 153 variants are collected here from a collection of fitness landscapes (doi:10.1126/science.1257360).

The list shows a part of the results.

First the molecules themselves.
B1: PhoQ; a variant is named by its letters at X, in order, P23837 (parent)
chain: MKKLLRLFFPLSLRVRFLLATAAVVLVLSLAYGMVALIGYSVSFDKTTFRLLRGESNLFYTLAKWENNKLHVELPENIDKQSPTMTLIYDENGQLLWAQRDVPWLMKMIQPDWLKSNGFHEIEADVNDTSLLLSGDHSIQQQLQEVREDDDDAEMTHSVAVNVYPATSRMPKLTIVVVDTIPVELKSSYMVWSWFIYVLSANLLLVIPLLWVAAWWSLRPIEALAKEVRELEEHNRELLNPATTRELTSLVRNLNRLLKSERERYDKYRTTLTDLTHSLKTPLXXLQXXLRSLRSEKMSVSDAEPVMLEQISRISQQIGYYLHRASMRGGTLLSRELHPVAPLLDNLTSALNKVYQRKGVNISLDISPEISFVGEQNDFVEVMGNVLDNACKYCLEFVEISARQTDEHLYIVVEDDGPGIPLSKREVIFDRGQRVDTLRPGQGVGLAVAREITEQYEGKIVAGESMLGGARMEVIFGRQHSAPKDE

This assay covers variants of B1. Put plainly: enrichment ratio after two sorts for PhoP signalling (ratio (wild type AVST 3.29)); higher = more functional. The settings on record: with PhoP (E. coli).
Turning to RSWP, the enrichment ratio is no more than 0.25.
Consider EHNP, for which the enrichment ratio was no more than 0.25.
In the case of WELM, the enrichment ratio worked out at 17.4.
As for EPLL, the figure is no more than 0.25.
Consider MRGF, for which the enrichment ratio is no more than 0.25.
In the case of WMMH, the enrichment ratio is no more than 0.25.
Take GHRV: the enrichment ratio is no more than 0.25.
For GMKA, the enrichment ratio was no more than 0.25.
In the case of MCAR it was no more than 0.25; in that of WHPP, no more than 0.25; in that of HNRC, no more than 0.25.
With VRFN, the enrichment ratio was no more than 0.25.
As for QSTT, the figure is no more than 0.25; as for QSGA, 0.764.
As to ARSN, the enrichment ratio is no more than 0.25.
In the case of FAQE, the enrichment ratio was no more than 0.25.
As for AVGY, the figure is 2.53.
As for YWRN, the enrichment ratio is no more than 0.25.
Take PIWQ: the enrichment ratio was no more than 0.25.
For the variant CYWK, the enrichment ratio was no more than 0.25.
Consider FYGL, for which the enrichment ratio was no more than 0.25.
Regarding MRYY, the enrichment ratio is no more than 0.25.
In the case of KESW, the enrichment ratio was no more than 0.25.
For the variant YNAN, the enrichment ratio is no more than 0.25.
As for DHSR, the enrichment ratio is no more than 0.25.
VGDH: the enrichment ratio is no more than 0.25.
In the case of SFIP it was no more than 0.25.
With FCFN, the enrichment ratio is no more than 0.25.
Turning to RYCY, the enrichment ratio was no more than 0.25.
Regarding HKMR, the enrichment ratio was no more than 0.25.
On to QQDL, for which the enrichment ratio is no more than 0.25.
Turning to SMEW, the enrichment ratio was no more than 0.25.
Regarding GAVS, the enrichment ratio was no more than 0.25.
As for FTVS, the figure is no more than 0.25.
As to FCGN, the enrichment ratio is no more than 0.25.
VRSV: the enrichment ratio is no more than 0.25.
As for ASKR, the figure is no more than 0.25; as for IDTL, no more than 0.25.
As for YTDS, the figure is no more than 0.25; as for RHDR, no more than 0.25.
In the case of FDTC it was no more than 0.25; in that of ENFQ, no more than 0.25; in that of IYSY, no more than 0.25.
As to LVEH, the enrichment ratio is no more than 0.25.
Consider RNNR, for which the enrichment ratio is no more than 0.25.
Take PNSR: the enrichment ratio is no more than 0.25.
Consider LIVD, for which the enrichment ratio is no more than 0.25.
As for SSRF, the figure is no more than 0.25; as for DISH, no more than 0.25; as for VRWP, no more than 0.25.
With DMYV, the enrichment ratio was no more than 0.25.
On to DTME, for which the enrichment ratio was no more than 0.25.
As for DILT, the figure is no more than 0.25; as for GSER, no more than 0.25.
As to DPWT, the enrichment ratio is no more than 0.25.
Turning to AFGE, the enrichment ratio was no more than 0.25.
In the case of MSCQ it was 1.67; in that of LCYE, no more than 0.25; in that of LEWD, no more than 0.25.
For the variant YDGP, the enrichment ratio is no more than 0.25.
For the variant WSPF, the enrichment ratio is no more than 0.25.
Turning to WNTM, the enrichment ratio was no more than 0.25.
VNFR: the enrichment ratio is no more than 0.25.
VRHC: the enrichment ratio is no more than 0.25.
In the case of CFLC it was no more than 0.25; in that of MQTL, no more than 0.25.
As to VHWW, the enrichment ratio was no more than 0.25.
On to RCWL, for which the enrichment ratio was no more than 0.25.
Take PRAA: the enrichment ratio is no more than 0.25.
Turning to PFPR, the enrichment ratio was no more than 0.25.
Take SNTT: the enrichment ratio came out at 3.46.
For the variant RRSR, the enrichment ratio was no more than 0.25.
On to AMMV, for which the enrichment ratio was found to be 21.8.
In the case of GHAC it was no more than 0.25.
Consider HLQF, for which the enrichment ratio is no more than 0.25.
In the case of KSMI, the enrichment ratio was no more than 0.25.
In the case of QFLA it was no more than 0.25; in that of YAIK, no more than 0.25; in that of VGCT, no more than 0.25.
FSRK: the enrichment ratio is no more than 0.25.
Turning to LEVT, the enrichment ratio is no more than 0.25.
Regarding QEEG, the enrichment ratio was no more than 0.25.
Regarding GLVR, the enrichment ratio was no more than 0.25.
As for LQTA, the figure is no more than 0.25.
Consider VNDR, for which the enrichment ratio was no more than 0.25.
In the case of EQFL it was no more than 0.25; in that of RKGA, no more than 0.25; in that of NLPY, no more than 0.25.
AFLF: the enrichment ratio was found to be 0.946.
With NMND, the enrichment ratio is no more than 0.25.
In the case of VDMA, the enrichment ratio is no more than 0.25.
Regarding ETFS, the enrichment ratio was no more than 0.25.
With YQWR, the enrichment ratio is no more than 0.25.
In the case of DDRD, the enrichment ratio is no more than 0.25.
With VPIV, the enrichment ratio was no more than 0.25.
Turning to MVIG, the enrichment ratio was no more than 0.25.
As for RQPI, the enrichment ratio was no more than 0.25.
For the variant YRGF, the enrichment ratio is no more than 0.25.
In the case of NQYD, the enrichment ratio is no more than 0.25.
As for VIMG, the enrichment ratio is no more than 0.25.
As for EHLV, the figure is no more than 0.25; as for HPRN, no more than 0.25.
As for VMRM, the figure is no more than 0.25; as for GSEF, 2.41; as for TECI, 2.38.
In the case of MRSG, the enrichment ratio was no more than 0.25.
In the case of FEMD, the enrichment ratio was no more than 0.25.
As for LCTN, the enrichment ratio was no more than 0.25.
In the case of NRVH it was no more than 0.25; in that of GHKN, no more than 0.25; in that of NSRN, no more than 0.25.
As for INII, the figure is no more than 0.25.
In the case of PLIQ, the enrichment ratio was no more than 0.25.
As to FYGC, the enrichment ratio is no more than 0.25.
In the case of QHYQ, the enrichment ratio is no more than 0.25.
In the case of NKWY it was no more than 0.25; in that of IGRE, no more than 0.25; in that of EGMT, no more than 0.25.
In the case of VSVF, the enrichment ratio was no more than 0.25.
Turning to SGGH, the enrichment ratio is 4.82.
Take FDPQ: the enrichment ratio is no more than 0.25.
Consider VIDS, for which the enrichment ratio is no more than 0.25.
In the case of GDYD, the enrichment ratio worked out at 3.11.
Turning to LKSF, the enrichment ratio is no more than 0.25.
For the variant LWIP, the enrichment ratio is no more than 0.25.
In the case of PMGR, the enrichment ratio worked out at 0.412.
With AFYR, the enrichment ratio is no more than 0.25.
QEPS: the enrichment ratio was no more than 0.25.
As to DFRW, the enrichment ratio is no more than 0.25.
In the case of FRQK it was no more than 0.25.
As for NELF, the enrichment ratio is no more than 0.25.
For NGCH, the enrichment ratio was no more than 0.25.
In the case of GITM it was 10.3; in that of STGS, 7.29; in that of DLVN, no more than 0.25.
On to KMRW, for which the enrichment ratio was no more than 0.25.
For the variant SRAE, the enrichment ratio was no more than 0.25.
As for INSQ, the figure is no more than 0.25; as for MYRG, no more than 0.25.
As for DMWL, the figure is no more than 0.25.
For the variant LGVT, the enrichment ratio is no more than 0.25.
On to SHYH, for which the enrichment ratio is no more than 0.25.
ISQA: the enrichment ratio was no more than 0.25.
For the variant SRVN, the enrichment ratio was no more than 0.25.
Consider ICNI, for which the enrichment ratio was no more than 0.25.
On to DPPK, for which the enrichment ratio is no more than 0.25.
On to ETVR, for which the enrichment ratio is no more than 0.25.
On to WMHF, for which the enrichment ratio was no more than 0.25.
Regarding IASD, the enrichment ratio is no more than 0.25.
Consider FWEF, for which the enrichment ratio is no more than 0.25.
In the case of NLML it was no more than 0.25.
For VWHW, the enrichment ratio is no more than 0.25.
As for VVCG, the figure is no more than 0.25.
